Test results as given in publication PMC4336329 (PLoS ONE, 2015).
Screen size: about 310,000 compounds; about 2,200 (0.71%) showed an effect of 50% or more. The effect is printed as a negative number. This is one part of the list. Where a SMILES comes first, the peptide text is derived from it. The star is where a group is joined. Boc = CC(C)(C)OC(=O)*; OtBu = CC(C)(C)O*

Molecular target: human ether-à-go-go-related gene (hERG) potassium channel (human, UniProt Q12809)
Assay: primary screen, population patch clamp on CHO cells stably expressing hERG

Sequence of human ether-à-go-go-related gene (hERG) potassium channel (Q12809 whole entry, looked up): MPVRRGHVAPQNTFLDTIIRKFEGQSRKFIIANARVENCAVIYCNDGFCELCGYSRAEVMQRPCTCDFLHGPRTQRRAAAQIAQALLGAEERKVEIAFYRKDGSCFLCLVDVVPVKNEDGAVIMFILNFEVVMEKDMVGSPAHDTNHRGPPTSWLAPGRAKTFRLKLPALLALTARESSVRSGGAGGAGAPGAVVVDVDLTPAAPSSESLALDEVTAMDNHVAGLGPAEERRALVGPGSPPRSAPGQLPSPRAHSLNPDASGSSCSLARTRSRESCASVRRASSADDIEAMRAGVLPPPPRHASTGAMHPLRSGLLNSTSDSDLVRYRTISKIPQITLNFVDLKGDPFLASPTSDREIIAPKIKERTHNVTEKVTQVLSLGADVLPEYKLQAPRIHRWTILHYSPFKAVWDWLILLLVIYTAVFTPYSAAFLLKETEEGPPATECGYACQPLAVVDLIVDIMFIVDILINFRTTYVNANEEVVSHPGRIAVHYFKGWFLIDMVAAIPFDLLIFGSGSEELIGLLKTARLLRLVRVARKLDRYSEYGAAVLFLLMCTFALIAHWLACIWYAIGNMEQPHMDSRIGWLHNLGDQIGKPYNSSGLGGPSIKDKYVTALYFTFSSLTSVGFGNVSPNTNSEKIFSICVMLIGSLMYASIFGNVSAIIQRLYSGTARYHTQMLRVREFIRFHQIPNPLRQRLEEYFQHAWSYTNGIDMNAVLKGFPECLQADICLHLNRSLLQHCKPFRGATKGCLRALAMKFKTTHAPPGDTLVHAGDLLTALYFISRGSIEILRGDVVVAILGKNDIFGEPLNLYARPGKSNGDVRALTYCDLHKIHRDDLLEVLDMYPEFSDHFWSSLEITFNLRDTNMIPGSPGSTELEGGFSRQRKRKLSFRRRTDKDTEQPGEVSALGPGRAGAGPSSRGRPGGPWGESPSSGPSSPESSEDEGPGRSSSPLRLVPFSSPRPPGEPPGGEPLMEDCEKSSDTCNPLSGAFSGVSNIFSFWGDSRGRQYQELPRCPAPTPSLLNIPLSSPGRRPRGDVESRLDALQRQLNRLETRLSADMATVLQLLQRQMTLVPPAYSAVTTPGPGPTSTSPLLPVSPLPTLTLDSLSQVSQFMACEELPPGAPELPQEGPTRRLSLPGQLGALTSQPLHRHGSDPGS

Row | Structure (SMILES) | hERG current change (%, negative = inhibition) at 1uM [%]
1 | O=C(/C(Cl)=C/Nc1ccc(Br)cn1)C(F)(F)F | 16.6
2 | COc1cccc(-c2cc(C(=O)N3N=C(C)CC3(O)C(F)F)c3ccccc3n2)c1 (centres unmarked) | 12.5
3 | CCCS(=O)(=O)N1CCN(C(=O)COc2ccc(-c3ccccc3)cc2)CC1 | -5.86
4 | CCCCCCCCCS(=O)(=O)N/N=C/c1cccc([N+](=O)[O-])c1 | 13.5
5 | CC1=C(C(=O)OCC2CCCCC2)C(c2ccccc2F)NC(=O)N1 (centres unmarked) | 6.23
6 | O=C1C=C(c2ccc3c(c2)OCO3)C[C@@H](c2ccc(Cl)cc2)C1 | 13.8
7 | COc1ccc(NS(=O)(=O)c2ccc(Br)cc2)cn1 | 6.28
8 | O=C1c2ccccc2S(=O)(=O)c2cc(C(=O)N3CCC(O)CC3)ccc21 | 13.7
9 | Cc1cc(C(=O)CN2CCCC2)c(C)n1-c1ccc(F)cc1 | 5.53
10 | Cc1ccc(C23OCCN2CCn2nc4ccccc4c23)cc1 (centres unmarked) | 10
11 | Cc1cc(C)c(OCCCNCc2ccccc2)c(Br)c1.O=C(O)C(=O)O | 10.5
12 | COc1ccc(NC(=O)c2nc[nH]c2C(=O)N[C@H](C)c2ccccc2)cc1 | 6.67
13 | CCC(SC1=N/C(=C/c2ccccc2OC)C(=O)N1c1ccccc1)C(=O)Nc1cc(C)on1 (centres unmarked) | -0.366
14 | O=C(N/N=C/C=C/c1ccccc1[N+](=O)[O-])c1cccs1 | 6.89
15 | CCOC(CNC(=O)c1cc(C)nn1-c1ccccc1)OCC | -1.47
16 | O=C(Nc1sc2c(c1C(=O)O)CCCC2)c1cccs1 | 10.5
17 | COc1cccc(C2/C(=C(/O)c3ccccc3)C(=O)C(=O)N2Cc2ccco2)c1 (centres unmarked) | 14.3
18 | Fc1nc(F)c(F)c(NCCCNc2c(F)c(F)nc(F)c2F)c1F | 9.7
19 | Cc1ccc(-n2c(O)cnc2Nc2nc(C)cc(C)n2)cc1 | 10.2
20 | Cc1onc(-c2ccccc2)c1C(=O)N1CCCC1 | 8.51
21 | CCNc1nc(NCC)n2c(SCC(=O)Nc3cc(Cl)ccc3OC)nnc2n1 | -3
22 | CN1CCN(/N=C/c2c3ccccc3c(Cl)c3ccccc23)CC1.Cl | 5.45

Row | Structure (SMILES) | hERG current change (%, negative = inhibition) at 1uM [%]
23 | NC(=O)Nc1ccccc1C(=O)N1CCC(O)(c2ccc(Cl)cc2)CC1 | 4.63
24 | CCC(C)c1ccc(S(=O)(=O)Nc2cccnc2)cc1.Cl (centres unmarked) | 9.63
25 | CC(=O)NC(c1ccccc1)c1cc([N+](=O)[O-])c2cccnc2c1O (centres unmarked) | 8.48
26 | COc1cc2ccccc2cc1C(=O)NCc1ccncc1 | 2.89
27 | CC(C(=O)O)n1c2ccccc2c2cn[nH]c(=O)c21 (centres unmarked) | 14.5
28 | Cc1ccc(C)c(S(=O)(=O)N2CCCCC2CCNC(=O)C(=O)NCc2cccnc2)c1 (centres unmarked) | 3.69
29 | CCCN(CCC)CCCNC(=O)c1cc2c(=O)n(C)c3ccccc3c2n1C | 4.94
30 | CCc1ccc(C(=O)Nc2cc(C)ccc2F)s1 | 10.4
31 | NC(=O)c1sc2nc3c(c(-c4ccco4)c2c1N)CCC3 | -1.6
32 | CC(=O)N1CCSc2ccc(S(=O)(=O)Nc3cccc(C)c3)cc21 | 5.18
33 | Cc1nonc1CN(C)C(=O)CC1C(=O)NCCN1Cc1c(F)cccc1Cl (centres unmarked) | 6.14
34 | C=CCNC(=O)c1cc2c(=O)n3cc(C)ccc3nc2nc1NCC1CCCO1 (centres unmarked) | -82
35 | COc1ccc(S(=O)(=O)NCc2ccccn2)c(Cl)c1Cl | -2.93
36 | CCn1c(COc2ccc3c(c2)OCO3)nnc1SCC(=O)c1ccc(Cl)cc1 | 11.1
37 | NNC(=O)c1sccc1OCc1ccc(Cl)cc1 | 13.2
38 | CC(C)NC(=O)CSc1nc2ccccc2n1CC(=O)N1CCc2ccccc21 | 8.47
39 | O=C(NCc1ccccc1)C1CCCN(c2ncnc3c2nc2n3CCCCC2)C1 (centres unmarked) | -30.8
40 | COc1ccccc1N1CCN(C(=O)c2cc(-c3ccc(F)cc3)on2)CC1 | 19.3
41 | COc1ccc(Nc2nc(C(C)(C)C)nc3c2nnn3Cc2ccccc2Cl)cc1OC | 7.93
42 | CN1CCN(c2ccccc2NC(=O)c2ccc(-c3ccc(Br)cc3)o2)CC1 | 2.24
43 | O=C(CNS(=O)(=O)c1ccc(Br)cc1Cl)OCC(=O)c1ccc[nH]1 | 4.02
44 | Clc1ccc(C(c2ccccc2)N2CCNCC2)cc1 (centres unmarked) | -3.9

Row | Structure (SMILES) | hERG current change (%, negative = inhibition) at 1uM [%]
45 | COC(=O)c1[nH]c2cc(OC)c(OC)cc2c1NC(=O)CN1C[C@H]2C[C@@H](C1)c1cccc(=O)n1C2 | 7.05
46 | Cc1ccc(OCCC(=O)OCC(=O)Nc2ccc3[nH]c(=O)[nH]c3c2)cc1 | 4.44
47 | O=C(/C=C/c1ccccc1[N+](=O)[O-])N1CCN(c2ccccc2F)CC1 | 13.1
48 | O=C(N/N=C(\Cc1ncc[nH]1)c1ccccc1)c1cccnc1 | 13.4
49 | O=C(Nc1ccc(-c2nc3cc(NC(=O)c4cccs4)ccc3o2)cc1)c1cccs1 | 24.6
50 | NS(=O)(=O)OCC(Cc1ccccc1)N1C(=O)c2ccccc2C1=O (centres unmarked) | 6.52
51 | Cc1cc(C)cc(NC(=O)N(CCC#N)Cc2cccs2)c1 | 11.3
52 | O=C(O)c1ccc(N/N=C/c2ccc(OC(=O)c3cccc(Cl)c3)cc2)cc1 | 7.33
53 | Cc1cccc(NC(=O)c2cc(Cl)sc2Cl)c1C | 7.97
54 | CC(C)CC(NS(=O)(=O)c1ccc2[nH]c(=O)c(=O)[nH]c2c1)C(=O)O (centres unmarked) | 15.7
55 | CC(=O)Nc1ccc(S(=O)(=O)NCCc2ccc(S(N)(=O)=O)cc2)cc1 | 16.4
56 | CCOC(=O)c1ccc(N2C(=O)C(CC(=O)NC)N(CCc3ccc(OC)c(OC)c3)C2=S)cc1 (centres unmarked) | 4.66
57 | O=C(CSc1nnc(-c2ccncc2)n1Cc1ccccc1)NC1CCCCC1 | 2.98
58 | CCOC(=O)c1ccc2c(c1)nc(SC/C(O)=C(\C#N)c1nc3ccccc3[nH]1)n2CC | 13.4
59 | O=C1CC(=O)N(CCc2ccc(F)cc2)C(=O)N1 | 11.4
60 | Cc1ccc(C(=O)N/C(=C/c2cn(-c3ccccc3)nc2-c2ccccc2)C(=O)O)cc1 | 16.1
61 | COc1ccc2c(c1)OC[C@H]1[C@H]2N2C(=O)c3cc(Br)ccc3NC(=O)[C@@]2(C)[C@H]1c1ccccc1 | -0.715
62 | COc1ccc(CCC(=O)N2C[C@H]3C[C@@H](C2)c2cccc(=O)n2C3)cc1 | 2.37
63 | CCC/C(C)=N/NC(=O)c1ccccc1O | -2.61
64 | CCOCCn1c(CN(Cc2ccccc2)Cc2ccccc2)nc2c1c(=O)[nH]c(=O)n2C | -6.06
65 | CC1CCN(c2cc(C#N)c(C#N)cc2[N+](=O)[O-])CC1 | 6.9
66 | Cc1ccc(OCC(O)CN2CCc3ccccc3C2)c(C)c1.Cl (centres unmarked) | -42.6

Row | Structure (SMILES) | hERG current change (%, negative = inhibition) at 1uM [%]
67 | Cc1cccc(NC(=O)c2c(-c3ccccc3)noc2C)n1 | 5.95
68 | CSc1cccc(NC(N)=S)c1 | 14.7
69 | O=[N+]([O-])c1ccc2[nH]cc(S(=O)(=O)N3CCN(c4cccc(Cl)c4)CC3)c2c1 | 17.3
70 | O=C(O)CSCC(=O)N1CCN(c2nc3cc(Cl)ccc3s2)CC1 | 4.82
71 | COc1ccccc1CC(=O)N1CCN(C(=O)c2ccco2)CC1 | 6.92
72 | Cc1cc(C)cc(Oc2ccc(S(=O)(=O)N3CCN(C)CC3)cn2)c1 | 15.3
73 | COc1ccc(C(=O)NC(=O)NC2(C(Cl)(Cl)Cl)OCCO2)cc1 | 8.1
74 | CN(C)CCNC(=O)c1onc(CSc2ccncc2)c1C(=O)NCCN(C)C | 7.02
75 | CC(Sc1nncn1C)C(=O)Nc1ccc(Cl)cn1 (centres unmarked) | 14
76 | COC(=O)[C@@]1(Cc2ccc(OC)cc2)[C@H]2c3cc(C(=O)N4CCCC4)n(C[C@H](O)CO)c3C[C@H]2CN1C(=O)c1ccccc1 | 6.78
77 | CC(NC(=O)C(CC(=O)OC(C)(C)C)NC(=O)OC(C)(C)C)C(N)=O (centres unmarked) (Boc-Asp(OtBu)-Ala-NH2; configuration not given here) | 7.22
78 | CCOc1ccc(NC(=O)[C@H](Cc2ccccc2)NC(=O)C2CCNCC2)cc1 | 8.62
79 | O=C(O)c1ccc(N=NN2CCCC2)cc1 | 16.8
80 | O=C(N/N=C/c1ccc(Cl)cc1)c1n[nH]c2c1CCCC2 | 7.34
81 | CC(C)COc1cccc(C(=O)Nc2ccc(CN3CCOCC3)cc2)c1 | 7.04
82 | O=C(CCCCCn1c(SCc2ccncc2)nc2ccccc2c1=O)NCc1ccco1 | -88.4
83 | C[C@H](NC(=O)[C@@H]1Cc2ccccc2CN1)C(=O)NC1CCCC1 | 11.8
84 | O=C(Nc1ccccc1Oc1ccccc1)c1ccc(Br)o1 | 2.85
85 | COc1cccc(OC)c1OCCCCN1CCCCC1.O=C(O)C(=O)O | 9.21
86 | CCC(C)NS(=O)(=O)c1ccc(NC(=O)CCC2CCCCC2)cc1 (centres unmarked) | 14.9
